Experimental data published in paper PMC6919601, “Identification of Plasmodium dipeptidyl aminopeptidase allosteric inhibitors by high throughput screening” (PLoS ONE, 2019).
Out of some 110,000 compounds screened, about 230 (0.21%) showed an effect of 50% or more. Some of the results follow.

Target: DPAP1 (Plasmodium falciparum, UniProt Q8IIJ9)
Assay: primary screen, percent inhibition; read by cleavage of a fluorogenic dipeptide substrate; higher = more effect of the substance
Design: species or system P. falciparum D10 trophozoite lysates; single well
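Note: 30 min substrate incubation versus DMSO and 10 µM JCP410 controls.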

Chain of DPAP1 (Q8IIJ9 whole entry, looked up): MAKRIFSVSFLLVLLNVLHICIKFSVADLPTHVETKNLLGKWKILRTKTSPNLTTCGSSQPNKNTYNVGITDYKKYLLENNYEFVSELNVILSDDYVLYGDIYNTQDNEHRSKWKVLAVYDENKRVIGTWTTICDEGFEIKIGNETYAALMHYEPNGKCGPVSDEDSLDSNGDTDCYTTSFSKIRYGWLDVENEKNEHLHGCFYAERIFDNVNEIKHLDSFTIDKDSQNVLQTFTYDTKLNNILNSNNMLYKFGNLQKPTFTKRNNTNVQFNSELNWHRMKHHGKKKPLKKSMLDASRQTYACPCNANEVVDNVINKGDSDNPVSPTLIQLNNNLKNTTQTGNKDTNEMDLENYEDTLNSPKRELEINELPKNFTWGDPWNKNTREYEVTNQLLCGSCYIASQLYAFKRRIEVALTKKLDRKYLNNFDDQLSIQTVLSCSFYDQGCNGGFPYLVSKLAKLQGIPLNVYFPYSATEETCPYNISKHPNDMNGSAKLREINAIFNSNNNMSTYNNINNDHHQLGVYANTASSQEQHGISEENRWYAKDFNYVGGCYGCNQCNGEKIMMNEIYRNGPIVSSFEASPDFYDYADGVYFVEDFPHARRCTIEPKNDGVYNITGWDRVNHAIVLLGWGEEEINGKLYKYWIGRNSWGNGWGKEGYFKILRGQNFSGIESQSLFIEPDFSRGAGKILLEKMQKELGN

Row | Structure (SMILES) | % Inhibition @ 10 uM [%]
1 | COc1ccc(-c2c(C)c3c(n2C)C(c2ccccc2)Oc2ccccc2-3)cc1 (stereo not shown) | -1.5
2 | COc1ccc(N(CC(=O)Nc2cccc(Cl)c2)S(C)(=O)=O)cc1OC | 3.66
3 | CCOc1cccc2c1OC(c1ccc(C(=O)OC)cc1)N1N=C(c3cccnc3)CC21 (stereo not shown) | -1.46
4 | COc1ccc(N2C(N)=C(C#N)C(c3cc(OC)c(OC)c(OC)c3)C3=C2CCCC3=O)cc1 (stereo not shown) | -4.76
5 | CC(=O)C1=C(Nc2ccccc2)SC(c2ccccc2)CC1=O (stereo not shown) | 3.99
6 | COCc1cc(C)nc(SCC(=O)Nc2ccc(C(C)=O)cc2)c1C#N | -3.46
7 | CC(C)/C=C1\CC/C(=C\c2ccncc2)C1=O | 1.07
8 | COc1ccc(-c2noc(CN(C(=O)NC3CCCCC3)C3CCCCC3)n2)cc1OC | 6.34
9 | COc1cccc(CNC2CCCCC2)c1O | -0.386
10 | CCOc1ccc(Cn2nnc(C(=O)NCc3ccc(Cl)cc3Cl)c2N)cc1 | 3.49
11 | CC(=O)c1ccc(N2C(=O)C3CCC(C)CC3C2=O)cc1 (stereo not shown) | -6.07
12 | CCOC(=O)c1c(C)oc2c1c1c(c3ccccc32)OCN(CCCC(=O)O)C1 | 8.12
13 | COc1cc(S(=O)(=O)N2CCNCC2)ccc1-n1cnnn1 | -4.19
14 | N#Cc1c(N/C=C2/C(=O)NC(=O)N(c3cccc(Cl)c3)C2=O)sc2c1CCC2 | -2.54
15 | Cc1cccc(C)c1OCC(=O)Nc1ccc(S(=O)(=O)N2CCCC2)cc1 | -5.14
16 | O=C(NCCCN1CCOCC1)c1ccc2nc(N3CCCCC3)sc2c1 | -9.91
17 | N#CC1=C(N)OC2=C(C(=O)CCC2)C1c1ccc(C(F)(F)F)cc1 (stereo not shown) | -8.11
18 | CC(C)C[C@H](NC(=O)N1CCN(C(c2ccccc2)c2ccccc2)CC1)C(=O)NCC#N | 1.35
19 | CN(C)CCCN(C(=O)CCS(=O)(=O)c1ccccc1)c1nc2c(F)cccc2s1 | 2.72
20 | CCOC(=O)C1CCN(Cc2ccc(OC)cc2)CC1 | 0.317
21 | CC1CN(Cc2cccnc2)CC(C)O1 (stereo not shown) | 5.73
22 | CCC1CCC(N(CCO)CCO)CC1 (stereo not shown) | -0.0648

Row | Structure (SMILES) | % Inhibition @ 10 uM [%]
23 | O=C(Cc1ccccc1)Nc1nccs1 | -0.769
24 | Cc1ccccc1OCCn1cnc2ccccc21 | 5.3
25 | Clc1ccc(OCCCCN2CCCC2)c(Cl)c1 | -5.16
26 | Cc1cccc2ccc(C3C(=O)c4cccc5cccc(c45)C3=O)nc12 | -1.47
27 | Cc1ccccc1Cn1cc(NC(=O)c2onc(C)c2Cl)cn1 | 1.62
28 | O=[N+]([O-])c1cc2c(cc1CN1CCSCC1)OCO2 | -1.98
29 | COc1c(O)cnn(-c2ccccc2)c1=O | -5.32
30 | Cc1ccc(C(=O)N2CCN(c3ccc(NC(=O)c4cccs4)cc3)CC2)cc1 | -6.39
31 | CCOC(=O)/C(=C\N(C)C)C(=O)C1CCN(C(=O)OC(C)(C)C)CC1 | -1.08
32 | CCC(C)NC(=O)CSc1nc(-c2ccccc2)cc(C(F)(F)F)n1 (stereo not shown) | -7.35
33 | CN(C)S(=O)(=O)c1ccc(C(=O)NCc2nnc(S)n2-c2ccccc2Cl)cc1 | 3.34
34 | O=C(NCCCN1CCOCC1)c1ccc(CS(=O)c2ccccc2)o1 (stereo not shown) | -1.28
35 | O=C1c2ccccc2C(=O)N1CCCO | -0.256
36 | O=C1c2cccc3cccc(c23)C(=O)N1CCN1CCN(S(=O)(=O)c2ccccc2)CC1 | -1.59
37 | Cc1ccc(OCc2ccc(C(=O)O)cc2)cc1C | 5.3
38 | C=CCn1c(SCC(=O)c2ccc(F)cc2)nc2sc(CC)cc2c1=O | -7.58
39 | COc1ccc(-c2cc(C(F)(F)F)nc(SCC(=O)NCc3cccnc3)n2)cc1 | -2.31
40 | O=C(Nc1nc2ccccc2s1)C1CCCN(c2ncnc3onc(-c4ccc(F)cc4)c23)C1 (stereo not shown) | -2.16
41 | CC(Cc1ccccc1)NC1=NS(=O)(=O)c2ccccc21 (stereo not shown) | 0.634
42 | CCOc1ccccc1NC(=O)c1ccccc1OCC | 0.316
43 | Cn1c(C(=O)NCc2ccccn2)cc2sc(Cl)cc21 | -8.58
44 | COc1ccc(/C=C2/SC(N3CCC(C)CC3)=NC2=O)cc1 | 4.44

Row | Structure (SMILES) | % Inhibition @ 10 uM [%]
45 | CC1=CC(C)(C)Nc2ccc(OC(=O)C3CCCO3)cc21 (stereo not shown) | 2.22
46 | COc1cc(/C=C2/C(=N)N3C(c4ccccc4)=CSC3=NC2=O)ccc1OCC(=O)O | 3.15
47 | CC1=C(C#N)C(c2ccc(N(C)C)cc2)C2=C(O)CCCC2=N1 (stereo not shown) | -6.17
48 | CC(C)NS(=O)(=O)c1ccc(CCC(=O)N2CCc3ccccc3C2)cc1 | 0.528
49 | Cc1nn(C(C)C(=O)NCc2ccc(Cl)cc2)c(=O)c2cc3sccc3n12 (stereo not shown) | 3.4
50 | N#Cc1ccc(C(=O)Nc2ccc(-c3nc4ccccc4s3)cc2)cc1 | -2.12
51 | c1cc(N2CCNCC2)nc(N2CCNCC2)n1 | -4.96
52 | O=C(CCCN1C(=O)C(c2ccccc2)Oc2cccnc21)NCCc1ccc(Cl)cc1 (stereo not shown) | -6.61
53 | CC1=CC(C)C2(CO)COC(c3ccccc3)C1C2C (stereo not shown) | 4.65
54 | Cc1ccc(-n2ncc3c(O)nc(SC(C)C)nc32)cc1 | -3.35
55 | Cc1cc(/C=C\c2ccc(Cl)cc2)cs1 | -2.45
56 | Cc1ccccc1C(=O)Nc1cc(Cl)cc(Cl)c1 | 0.526
57 | CC1(C)Cc2c(c(S)sc(=N)c2C#N)CO1 | 8.27
58 | CCOc1ccc(S(=O)(=O)N(CC(=O)N2CCc3ccccc3C2)c2ccc(C)cc2)cc1 | 4.12
59 | CCC(C)c1ccc(-n2c(C)cc(/C=C3/C(=N)N4C=CSC4=NC3=O)c2C)cc1 (stereo not shown) | -1.17
60 | CC(NC(=O)c1ccccc1NC(=O)CN1C(=O)c2ccccc2S1(=O)=O)c1ccccc1 (stereo not shown) | 2.95
61 | CC1CC(C)CN(C(=O)C(Cc2ccccc2)NS(=O)(=O)c2cccc3nsnc23)C1 (stereo not shown) | 2
62 | COCCNC(=O)c1cnn(-c2ccc(F)cc2)c1-n1cccc1 | -8.21
63 | CCC(Sc1nc2cccnc2[nH]1)C(=O)N(Cc1ccccc1)C(C)C (stereo not shown) | -5.88
64 | Cc1ccc(S(=O)(=O)Nc2ccc3c(c2)ncn3C(C)(C)C)cc1 | -2.37
